Laboratory results published in the supplement of paper PMC3334620.
The full ranking holds about 33,000 sequences; the median of “E-score (-0.5 to 0.5)” is about -0.032, and the highest 2% start at about 0.36. Some of the results follow.

Molecular target: T1, Sko1 (UniProt Q02100)
T1 sequence: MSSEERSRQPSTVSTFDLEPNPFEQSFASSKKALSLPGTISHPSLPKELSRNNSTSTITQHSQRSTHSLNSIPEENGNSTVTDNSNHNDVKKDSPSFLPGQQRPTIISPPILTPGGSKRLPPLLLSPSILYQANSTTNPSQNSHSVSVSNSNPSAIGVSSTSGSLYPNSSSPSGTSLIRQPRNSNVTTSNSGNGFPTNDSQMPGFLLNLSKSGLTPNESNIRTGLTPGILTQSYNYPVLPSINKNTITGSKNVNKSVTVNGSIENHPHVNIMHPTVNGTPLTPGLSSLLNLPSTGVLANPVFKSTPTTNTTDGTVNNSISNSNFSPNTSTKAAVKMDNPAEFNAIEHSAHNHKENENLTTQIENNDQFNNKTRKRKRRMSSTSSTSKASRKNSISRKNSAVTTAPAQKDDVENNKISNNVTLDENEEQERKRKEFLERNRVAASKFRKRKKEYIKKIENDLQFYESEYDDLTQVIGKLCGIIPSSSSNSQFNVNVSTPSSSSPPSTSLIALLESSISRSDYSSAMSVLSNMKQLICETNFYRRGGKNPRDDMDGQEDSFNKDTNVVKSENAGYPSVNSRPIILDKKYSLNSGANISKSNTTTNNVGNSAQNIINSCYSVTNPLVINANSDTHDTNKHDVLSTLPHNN
Assay: PBM E-score (8-mer binding enrichment) (E-score (-0.5 to 0.5)); higher = stronger / more preferred TF binding; most listed sequences are background and not binding sites
Details: protein concentration: 200 nM; construct: GST-full length
Summary of the method: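 Each ungapped eight-base word and its reverse complement, pooled, received an E-score from the Universal PBM Analysis Suite. Underlying scans, normalised with masliner, recorded fluorescent anti-GST bound to GST-tagged yeast transcription factors. These were applied at about 100-200 nM to universal all-10-mer Agilent arrays double-stranded by primer extension.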

First: ATATTTAA
Second: GACATTGC
The “PBM E-score” value of the first is higher: 0.32 for the first, 0.0301 for the second.

Going from ATGGTCCC to CGGTACTC, the “PBM E-score” value rises from -0.196 to -0.165.

Going from TACCATCA to ATAATAAA, the “PBM E-score” value rises from -0.0837 to 0.303.

Compared with AGGGGACC, CGCTTTGA is higher in “PBM E-score” value: -0.268 for the first, -0.101 for the second.

Going from CTAATACC to ATTAGTTG, the “PBM E-score” value rises from -0.0534 to 0.0951.

First: GCCTACTA
Second: ACTAGTCC
The “PBM E-score” value of the first is lower: -0.0173 for the first, 0.0157 for the second.

Compared with AACTCGCG, GGGTAAGA is lower in “PBM E-score” value: 0.178 for the first, -0.161 for the second.

Compared with GCGCAAGC, ACACCAGC is lower in “PBM E-score” value: -0.0196 for the first, -0.129 for the second.

First: ACGCTTAA
Second: TAGACTCA
The “PBM E-score” value of the first is higher: 0.0637 for the first, 0.0362 for the second.

Compared with ACTCGGTC, CACAGCAA is higher in “PBM E-score” value: -0.0986 for the first, 0.173 for the second.

First: ACTGCTAT
Second: CGACTCAA
The “PBM E-score” value of the first is lower: -0.132 for the first, 0.0143 for the second.

First: GTCCCCGA
Second: CGACGTAA
The “PBM E-score” value of the first is lower: -0.136 for the first, 0.472 for the second.

First: ACCGGTAT
Second: CGGTAAAC
The “PBM E-score” value of the first is lower: -0.214 for the first, -0.00793 for the second.

Going from AAGGTGGA to AATGGCGC, the “PBM E-score” value rises from -0.157 to -0.0228.

Compared with ATCCTGAA, AGACATCG is lower in “PBM E-score” value: 0.156 for the first, -0.148 for the second.

Going from CGATTACA to ATGCCAAA, the “PBM E-score” value falls from 0.106 to -0.0114.

First: CTTTGTTC
Second: GGCGCCTA
The “PBM E-score” value of the first is higher: -0.13 for the first, -0.163 for the second.

Going from AATACGGA to AACGAGAG, the “PBM E-score” value rises from 0.138 to 0.155.

Going from TAGAGCTA to GGTCTCAC, the “PBM E-score” value rises from -0.169 to -0.087.

First: ATGGTACG
Second: AGATTAAT
The “PBM E-score” value of the first is higher: 0.279 for the first, 0.0905 for the second.

Compared with CCCACGGA, AAGGGTGT is higher in “PBM E-score” value: -0.0825 for the first, 0.0672 for the second.

Going from AATTCGTG to ATGCACAC, the “PBM E-score” value falls from 0.169 to 0.0253.

Going from CAAAGCGA to CCTTGCTC, the “PBM E-score” value falls from -0.141 to -0.307.

First: CATGATAG
Second: CGAACTTC
The “PBM E-score” value of the first is lower: 0.0738 for the first, 0.115 for the second.

Compared with CTAAGCGC, CAGCCTGC is lower in “PBM E-score” value: -0.083 for the first, -0.225 for the second.

Compared with AAGGACGG, ACAAGCAA is higher in “PBM E-score” value: -0.22 for the first, 0.0627 for the second.

Compared with CCGTTCCG, CGATGTAC is higher in “PBM E-score” value: -0.149 for the first, 0.144 for the second.

Compared with AGACCCAG, GTCTACAA is higher in “PBM E-score” value: -0.0788 for the first, -0.00077 for the second.

Going from ACCCGCCA to ACCCCAGA, the “PBM E-score” value falls from -0.0876 to -0.138.

Compared with AGCTGCCG, GAATAATC is higher in “PBM E-score” value: -0.147 for the first, 0.219 for the second.

First: CTCGGACC
Second: CAGATTAA
The “PBM E-score” value of the first is lower: -0.184 for the first, 0.162 for the second.

First: AACCGTAA
Second: GTCTGAAA
The “PBM E-score” value of the first is lower: 0.0957 for the first, 0.124 for the second.

First: AAGCCAGG
Second: ATCCCCGC
The “PBM E-score” value of the first is higher: -0.0853 for the first, -0.265 for the second.

Compared with GATTATAC, ATAGGTGA is lower in “PBM E-score” value: 0.079 for the first, 0.0325 for the second.

Going from CTACTCGC to CCGACCAG, the “PBM E-score” value falls from -0.139 to -0.195.

Going from TGCTGCAA to CCGGAACC, the “PBM E-score” value falls from 0.093 to -0.301.

First: CAGAGCAA
Second: CTGGTGCA
The “PBM E-score” value of the first is higher: -0.0947 for the first, -0.172 for the second.

First: CATGACTC
Second: TGGCGGAA
The “PBM E-score” value of the first is higher: -0.0516 for the first, -0.102 for the second.

First: TCCCCCAA
Second: CTGTGATC
The “PBM E-score” value of the first is lower: -0.226 for the first, -0.0559 for the second.

First: ACCGGAAA
Second: GGATTTAA
The “PBM E-score” value of the first is lower: -0.0601 for the first, 0.0899 for the second.

Going from AAATCTAT to GCCCATAC, the “PBM E-score” value falls from 0.204 to 0.0102.

First: CTTTAATC
Second: GACTGTCA
The “PBM E-score” value of the first is higher: 0.0512 for the first, -0.182 for the second.

Compared with CAAGGGAA, TATAGCAA is higher in “PBM E-score” value: -0.134 for the first, 0.0706 for the second.

Compared with CAGAAGTC, GTCTTAAA is higher in “PBM E-score” value: -0.113 for the first, 0.00132 for the second.

Going from ACCGCGCC to AGTGAACC, the “PBM E-score” value falls from -0.0509 to -0.156.

Going from CACGAAAG to CATACGTC, the “PBM E-score” value rises from 0.0636 to 0.466.

First: ATAATCTA
Second: GGCGTCCC
The “PBM E-score” value of the first is higher: 0.189 for the first, -0.394 for the second.

Going from CGCCCTAA to CAGCCAGC, the “PBM E-score” value rises from -0.221 to -0.213.

Going from ATAAGACC to ACCGGCCT, the “PBM E-score” value rises from -0.17 to -0.0244.

Going from CGCCGGAA to AACCTTGA, the “PBM E-score” value rises from -0.23 to 0.094.

Going from GACACCAA to CTGTCCCC, the “PBM E-score” value falls from 0.00349 to -0.264.

Going from CTGTCCAA to GGTCTGAC, the “PBM E-score” value rises from -0.0587 to 0.0417.

First: CTTACTTC
Second: CGAAAGTA
The “PBM E-score” value of the first is higher: 0.151 for the first, 0.0596 for the second.

Going from GGGCGCCA to CCACCCTA, the “PBM E-score” value rises from -0.147 to 0.00159.

Compared with GACTCGGA, CCATTTCG is higher in “PBM E-score” value: -0.231 for the first, -0.1 for the second.

Going from CCGATTAG to AACATAAC, the “PBM E-score” value rises from -0.178 to 0.235.

Compared with CCATTTAG, ATCCTGGG is lower in “PBM E-score” value: -0.157 for the first, -0.201 for the second.

Compared with TCTTGTAA, CACCTGGA is lower in “PBM E-score” value: 0.178 for the first, -0.0797 for the second.

Going from ACGGAAGG to CTCGGTTA, the “PBM E-score” value falls from -0.114 to -0.135.

Compared with CTATCAAA, TCAAGCCA is higher in “PBM E-score” value: -0.0877 for the first, 0.106 for the second.

Compared with CTCCGGGC, CCCCGAGC is higher in “PBM E-score” value: -0.327 for the first, -0.208 for the second.

First: AGATGCTG
Second: GAAAGGTA
The “PBM E-score” value of the first is lower: -0.2 for the first, 0.0339 for the second.

Going from GCGTGCCC to CCTACGAG, the “PBM E-score” value rises from -0.143 to 0.103.

Compared with CCTAGAGA, GCAGCTGC is higher in “PBM E-score” value: -0.302 for the first, -0.0556 for the second.

First: TCGGCGCA
Second: AAAAACCC
The “PBM E-score” value of the first is higher: -0.094 for the first, -0.115 for the second.

First: CTAGTGTA
Second: GATGCTCC
The “PBM E-score” value of the first is higher: 0.00949 for the first, -0.182 for the second.

First: GTTTCATA
Second: ATTTCAGA
The “PBM E-score” value of the first is lower: 0.0355 for the first, 0.113 for the second.

First: CGCAACGA
Second: AACTTCGG
The “PBM E-score” value of the first is higher: 0.175 for the first, -0.142 for the second.

Going from TTCGGCAA to CAGATGCG, the “PBM E-score” value falls from 0.0302 to -0.0828.

Compared with CTCAAAAA, AAACTAGG is lower in “PBM E-score” value: 0.115 for the first, -0.166 for the second.

Going from GTTGAACA to GGTCCCCA, the “PBM E-score” value falls from -0.0806 to -0.242.

First: CGTTCCAA
Second: TAAGAAAA
The “PBM E-score” value of the first is higher: 0.176 for the first, 0.109 for the second.

Compared with GCCCGTAC, CCACAAAC is higher in “PBM E-score” value: -0.225 for the first, -0.0339 for the second.

Going from AGCCCTCA to GGTCTGCA, the “PBM E-score” value falls from -0.148 to -0.208.

Going from CGCTACGC to ACGCTCAT, the “PBM E-score” value rises from 0.0784 to 0.112.

First: ATTTCGGG
Second: AAAGGGAC
The “PBM E-score” value of the first is higher: -0.103 for the first, -0.119 for the second.

Going from ACTGGTAT to CTTTATAA, the “PBM E-score” value rises from -0.17 to 0.0548.

Compared with ACTCGACA, CTACGATC is higher in “PBM E-score” value: -0.0755 for the first, 0.123 for the second.

First: CGGCGTAG
Second: ACATTTAC
The “PBM E-score” value of the first is lower: -0.0753 for the first, 0.226 for the second.

Compared with ACAATTGC, ACCGGGTC is lower in “PBM E-score” value: 0.195 for the first, -0.116 for the second.

Going from CTAAAGGC to CGTTTTTA, the “PBM E-score” value rises from -0.0381 to 0.206.

Going from GGGCATAC to ATTCAGAC, the “PBM E-score” value rises from -0.187 to 0.173.

Going from CCTAGTGA to CTCTGTCA, the “PBM E-score” value rises from -0.0238 to 0.0253.

Going from CCCTGCGA to CGTCGGCA, the “PBM E-score” value rises from -0.126 to -0.0449.

Going from CGTCGCAA to CGGCGTGA, the “PBM E-score” value falls from 0.0897 to -0.0945.

Compared with CCTACCAA, AGGGTGCA is lower in “PBM E-score” value: -0.00101 for the first, -0.247 for the second.
